# Results reported in PubChem BioAssay AID651595 (National Center for Advancing Translational Sciences (NCATS), 2012).
# Among all 1,100 compounds or so, fewer than 10 were called active. The shares of active, inactive and inconclusive entries below differ from those in the screen. Calls come from the whole dose curve; as a rule, active = well fitted cell-killing curve with a large enough effect; inconclusive = small, poorly fitted or top-dose-only effect; inactive = flat fitted curve, though single readings scatter. Potencies beside an inconclusive call are fits to weak or partial responses and may not hold up.
# Test: qHTS of Nrf2 Activators: Hit Validation in Cytotox Assay;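 note: compound exposure lasted 24 hours before the ATP readout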
# Settings: Cell viability counter-screen for Nrf2 activator hits; series mostly up to 46.1 µM
# Procedure, shortened: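 Intracellular ATP measured with CellTiter-Glo luminescence (30 min, room temperature) as a viability read-out. Cells: AREc32_fluc, cultured overnight before 24 h compound exposure at 7 concentrations, 37 °C; activity here marks cytotoxicity.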
# Potency is the fitted concentration of half-maximal effect; tags give direction and shape of the fitted curve.
row,SMILES,Potency
1,O=c1[nH]c(O)c(/C=C2\C=Nc3ccc(Br)cc32)[nH]1,inactive
2,O=C(NCc1ccco1)c1ccccc1-c1nc(-c2ccc(F)cc2)no1,inactive
3,CN(N=Cc1ccccc1O)c1ccc2ccccc2n1,"inconclusive: 16.4 µM [cytotoxic, single point]"
4,COc1ccc(N=Nc2ccc(O)c3ncccc23)cc1,"inconclusive: 23.1 µM [cytotoxic, single point]"
5,O=[N+]([O-])c1ccc(/C=[N+](\[O-])[C@@H]2CCCC[C@@H]2/[N+]([O-])=C/c2ccc([N+](=O)[O-])o2)o1,active: 18.4 µM
6,O=[N+]([O-])c1cc(Cl)cc(/C=N/Nc2nc3ccccc3s2)c1O,"inconclusive: 20.6 µM [cytotoxic, single point]"
7,COc1ccccc1NC(=O)c1nc(S(=O)(=O)Cc2ccccc2)ncc1Cl,"inconclusive: 29.1 µM [cytotoxic, single point]"
8,Cc1ccc(NC(=O)c2ccc([N+](=O)[O-])s2)cc1S(=O)(=O)N1CCOCC1,"inconclusive: 20.6 µM [cytotoxic, single point]"
9,Cc1ccc(/C=C/C(=O)c2ccc([N+](=O)[O-])o2)cc1,"inconclusive: 20.6 µM [cytotoxic, single point]"
10,Cc1nnc(NC(=O)c2nc(S(=O)(=O)Cc3ccccc3)ncc2Cl)s1,"inconclusive: 29.1 µM [cytotoxic, single point]"
11,Cc1ccc(-c2nc3cccnc3s2)cc1NC(=O)c1ccco1,inactive
12,O=C1C2C3C=CC(C4CC34)C2C(=O)N1/N=C/c1ccc([N+](=O)[O-])o1 (centres undefined),"inconclusive: 20.6 µM [cytotoxic, single point]"
13,O=C1/C(=C/c2ccccc2)CCc2ccc(Cl)nc21,"inconclusive: 20.6 µM [cytotoxic, single point]"
14,Cc1nn2c(-c3ccccc3)nnc2c2ccccc12,inactive
15,N#Cc1c(NC(=O)c2ccc([N+](=O)[O-])o2)sc2c1CCC2,"inconclusive: 20.6 µM [cytotoxic, single point]"
16,N#C/C(=C\c1ccc([N+](=O)[O-])o1)c1nc2ccccc2[nH]1,active: 20.6 µM
17,O=c1c(Cl)c(N/N=C/c2ccc(Br)cc2)cnn1-c1ccccc1,"inconclusive: 29.1 µM [cytotoxic, single point]"
18,O=C(/C=C/c1ccccc1)Nc1ncn[nH]1,"inconclusive: 20.6 µM [cytotoxic, single point]"
19,Cc1ccc(C)c(-c2nnc(NC(=O)c3ccc([N+](=O)[O-])o3)o2)c1,"inconclusive: 14.6 µM [cytotoxic, partial curve]"
20,O=C1C2C(C(=O)N1/N=C/c1ccc([N+](=O)[O-])o1)C1C=CC2C12CC2 (centres undefined),"inconclusive: 18.4 µM [cytotoxic, single point]"
21,CC1CN(C(=O)/C=C/c2ccc([N+](=O)[O-])s2)CC(C)O1 (centres undefined),"inconclusive: 29.1 µM [cytotoxic, single point]"
22,Cc1nc(/N=C(\N)NC(=O)c2ccccc2)nc2ccccc12,"inconclusive: 29.1 µM [cytotoxic, single point]"
23,COc1ccc(COc2ccsc2C(=O)Nc2ccc(Cl)c(Cl)c2)cc1,"inconclusive: 29.1 µM [cytotoxic, single point]"
24,O=c1oc(CCCO)cc2ccc(C#Cc3ccsc3)cc12,"inconclusive: 29.1 µM [cytotoxic, single point]"
25,Clc1ccc(/C=C/c2ncc3ccccn23)cc1,"inconclusive: 25.9 µM [cytotoxic, single point]"

row,SMILES,Potency
1,CCCCn1c(O)c(N=Nc2ccccn2)c2ccccc21,inactive
2,CCCn1nc([N+](=O)[O-])c(C(C#N)c2nc3ccccc3s2)c(Cl)c1=O (centres undefined),"inconclusive: 6.51 µM [cytotoxic, partial curve]"
3,O=C(Nc1ccc(Br)c(C(F)(F)F)c1)c1ccccc1,"inconclusive: 20.6 µM [cytotoxic, single point]"
4,Cc1ccc(Cc2c(-c3ccco3)nc3c4ccccc4ccn23)cc1,"inconclusive: 18.4 µM [cytotoxic, single point]"
5,CN1CCN(C(=O)/C=C/c2ccc([N+](=O)[O-])o2)CC1,"inconclusive: 29.1 µM [cytotoxic, single point]"
6,Clc1nnc(NN=C2CCCC2)c2ccccc12,"inconclusive: 18.4 µM [cytotoxic, single point]"
7,Cc1cc2c(cc1C)N(C(=O)CCl)CC(=O)N2,"inconclusive: 23.1 µM [cytotoxic, single point]"
8,C/C(=N\NC(=O)c1cccc(Br)c1)c1ccccn1,"inconclusive: 0.517 µM [cytotoxic, full curve]"
9,NS(=O)(=O)c1ccc(NC(=S)NC(=O)c2cccc(Br)c2)cc1,"inconclusive: 16.4 µM [cytotoxic, single point]"
10,C/C(=N\NC(=S)NCC(C)(C)C)c1cc(F)cc(F)c1O,"inconclusive: 23.1 µM [cytotoxic, single point]"
11,O=C(/C=C/c1ccc2c(c1)OCO2)c1ccc(O)cc1O,inactive
12,Cc1sc(NC(=S)NC(=O)c2ccccc2)c(C#N)c1C,"inconclusive: 18.4 µM [cytotoxic, single point]"
13,N#CC1CC(c2ccccc2)=NN1c1ccccc1[N+](=O)[O-] (centres undefined),inactive
14,O=S1(=O)C=C(Sc2nc3cc(Cl)ccc3o2)c2ccccc21,"inconclusive: 18.4 µM [cytotoxic, single point]"
15,Oc1[nH]c2ccccc2c1N=NC(=S)N1CCOCC1,"inconclusive: 16.4 µM [cytotoxic, single point]"
16,NS(=O)(=O)c1ccc(O)c(NC(=O)c2ccc([N+](=O)[O-])o2)c1,"inconclusive: 29.1 µM [cytotoxic, single point]"
17,COc1cccc(/C=C2/CCC(CN(C)C)C2=O)c1 (centres undefined),"inconclusive: 18.4 µM [cytotoxic, single point]"
18,Fc1cccc(Cc2c(-c3ccco3)nc3c4ccccc4ccn23)c1,"inconclusive: 29.1 µM [cytotoxic, single point]"
19,O=[N+]([O-])c1ccc(/C=N/N=C/c2ccc([N+](=O)[O-])o2)o1,"inconclusive: 3.26 µM [cytotoxic, full curve]"
20,CC(/C=N/NC(=O)Cc1cccn1C)=C\c1ccco1,inactive
21,Cc1ccc(S(=O)(=O)c2nc(S(C)(=O)=O)sc2N2CCC(C)CC2)cc1,inactive
22,O=C(NC(=S)Nc1cnc2ccccc2c1)c1ccccc1,inactive
23,O=C(Nc1ccc2oc(-c3ccncc3)nc2c1)c1ccc([N+](=O)[O-])o1,"inconclusive: 18.4 µM [cytotoxic, single point]"
24,CCN(C(=O)Cn1nnc2sc(-c3ccccc3)cc2c1=O)c1cccc(C)c1,inactive
